The results in this text go back to article PMC4336329 (PLoS ONE, 2015).

Among all 310,000 compounds or so, about 14,000 (4.5%) showed an effect of 50% or more. Effects have a minus sign here. The list shows a part of the results.
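Also: peak tail current of the secondary pulse compared with the same well before compound.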

This assay deals with human ether-à-go-go-related gene (hERG) potassium channel (human, UniProt Q12809). The assay is described as follows: primary screen, population patch clamp on CHO cells stably expressing hERG.
Chain of human ether-à-go-go-related gene (hERG) potassium channel (Q12809 whole entry, looked up): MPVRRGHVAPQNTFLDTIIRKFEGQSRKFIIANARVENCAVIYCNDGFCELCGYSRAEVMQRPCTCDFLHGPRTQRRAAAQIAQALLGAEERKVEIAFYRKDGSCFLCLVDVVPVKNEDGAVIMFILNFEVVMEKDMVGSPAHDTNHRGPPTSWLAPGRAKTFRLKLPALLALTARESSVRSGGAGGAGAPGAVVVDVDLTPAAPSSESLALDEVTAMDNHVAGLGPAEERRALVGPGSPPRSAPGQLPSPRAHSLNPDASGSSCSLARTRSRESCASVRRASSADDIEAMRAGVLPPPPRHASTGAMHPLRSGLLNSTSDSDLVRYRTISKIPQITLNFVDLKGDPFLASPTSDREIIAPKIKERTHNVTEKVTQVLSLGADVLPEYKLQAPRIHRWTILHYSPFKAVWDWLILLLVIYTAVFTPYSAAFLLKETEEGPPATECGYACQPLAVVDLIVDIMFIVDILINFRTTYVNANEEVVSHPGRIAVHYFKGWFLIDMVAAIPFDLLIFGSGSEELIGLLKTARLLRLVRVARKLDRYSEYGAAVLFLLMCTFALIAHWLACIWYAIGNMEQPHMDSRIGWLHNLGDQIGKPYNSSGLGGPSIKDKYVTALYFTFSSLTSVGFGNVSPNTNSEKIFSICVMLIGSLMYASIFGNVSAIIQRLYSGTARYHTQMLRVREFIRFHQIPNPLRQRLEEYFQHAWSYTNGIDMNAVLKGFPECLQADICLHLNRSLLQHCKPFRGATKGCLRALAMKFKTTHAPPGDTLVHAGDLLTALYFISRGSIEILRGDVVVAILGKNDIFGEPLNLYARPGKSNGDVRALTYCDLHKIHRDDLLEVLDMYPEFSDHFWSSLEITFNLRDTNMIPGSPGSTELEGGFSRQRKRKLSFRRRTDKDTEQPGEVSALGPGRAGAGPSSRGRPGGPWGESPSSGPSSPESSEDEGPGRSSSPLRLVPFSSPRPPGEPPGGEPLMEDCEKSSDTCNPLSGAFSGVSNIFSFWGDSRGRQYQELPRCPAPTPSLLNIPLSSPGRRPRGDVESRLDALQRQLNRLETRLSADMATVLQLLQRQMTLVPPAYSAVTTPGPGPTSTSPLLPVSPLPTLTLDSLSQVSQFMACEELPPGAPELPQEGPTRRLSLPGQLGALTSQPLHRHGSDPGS
`COc1ccc(/C=C/C(=O)OCC(=O)Nc2cc(C(N)=O)cc(C(N)=O)c2)cc1`: the “hERG current change (%, negative = inhibition) at 10uM” value is 18.2%.

Regarding `COC(=O)c1ccc(NC(=O)NC2CCCCC2)cc1`, the “hERG current change (%, negative = inhibition) at 10uM” value worked out at 7.92%.

Regarding `Cc1ccc(Cl)cc1NC(=O)COC(=O)c1ccc(CN2CCCC2=O)cc1`, the “hERG current change (%, negative = inhibition) at 10uM” value turned out to be 7.64%. For `O=C(O)CCCCCNC(=O)c1cccc(Br)c1` the value was 12%; for `Cc1ccnc(NC(=O)c2cc3ccccc3o2)c1`, -18.4%.

With `CCOc1ccc(C2Sc3ccccc3NC3=C2C(=O)OC3)cc1` (stereo not drawn), the “hERG current change (%, negative = inhibition) at 10uM” value is recorded as -6.58%.

Take `Cc1ccc(C)c(NC(=O)C(CC(=O)O)C2CCCO2)c1` (stereo not drawn): the “hERG current change (%, negative = inhibition) at 10uM” value turned out to be 10.3%. In the case of `O=C(Cn1ncc2c3ccccc3n(Cc3ccccc3F)c2c1=O)NCCCN1CCCC1=O` it was -5%; in that of `C/C(=N\NC(=S)NCCc1ccccc1)c1ccc(C)cc1`, 8.17%. In the case of `CCn1nc(C)c(CN2CCN(Cc3ccc(OC)c(C)c3C)C(CCO)C2)c1C` (stereo not drawn) it was -45.8%; in that of `CCOC(=O)CC(NCc1ccc(OC)c(OCC)c1)c1ccc(C)cc1.Cl` (stereo not drawn), -39%; in that of `C(=N\N1CCN(c2ccccn2)CC1)/c1cccc2ccccc12`, 9.74%. With `Cc1nnsc1-c1c(C(=O)O)c(C)nn1-c1ccc(OC(F)(F)F)cc1`, the “hERG current change (%, negative = inhibition) at 10uM” value is 15%.

Take `CSc1ccccc1C(=O)Nc1ccccc1C(=O)NC(C)C`: the “hERG current change (%, negative = inhibition) at 10uM” value stood at 45.3%.

`CCOC(=O)Cn1c(=O)oc2cc(S(=O)(=O)NC(C)c3ccccc3)ccc21` (stereo not drawn): the “hERG current change (%, negative = inhibition) at 10uM” value is -18.9%.

For the compound `NC1=NC(=O)/C(=C/c2ccsc2)S1`, the “hERG current change (%, negative = inhibition) at 10uM” value was found to be 15.3%.

As for `CCOc1ccc(CN(C)C(=O)c2ccc3c(c2)NC(=O)C(C)S3)cc1OC` (stereo not drawn), the “hERG current change (%, negative = inhibition) at 10uM” value is recorded as -47.4%. As to `O=C(NCCC1=CCCCC1)c1cc2ccccc2oc1=O`, the “hERG current change (%, negative = inhibition) at 10uM” value was found to be 10.1%. In the case of `O=C(C1CCN(c2nc(-c3ccccc3)nc3c2CCC3)CC1)N1CCC(O)CC1` it was -33.4%; in that of `O=C(NCc1ccc(Cl)cc1)c1cc([N+](=O)[O-])ccc1Cl`, 19.3%; in that of `Cc1ccc(S(=O)(=O)CCC(=O)Nc2nc(-c3ccccn3)cs2)cc1`, -16%. For `N#CCCn1cc(C(=O)NCc2ccccc2)c(-c2cccs2)n1` the value was -17.6%. Regarding `O=C(CC1Nc2ccccc2NC1=O)NCc1cccnc1` (stereo not drawn), the “hERG current change (%, negative = inhibition) at 10uM” value stood at 0.464%. For `CN(C(=O)c1cccc(C#N)c1)c1nnc(C2CCCO2)s1` (stereo not drawn) the value was 11.7%; for `COc1cc(C(=O)NCCNc2nc3cc(C)ccc3cc2C#N)cc(OC)c1OC`, 0.746%. In the case of `CN(Cc1nc(Cc2ccccc2F)no1)[C@@H]1CS(=O)(=O)C[C@H]1O` it was -41.6%; in that of `CCOc1ccc(/C(O)=C2/C(=O)C(=O)N(CCN(C)C)C2c2ccccc2)cc1Cl` (stereo not drawn), -5.2%; in that of `CC(=O)N1CCc2cc(S(=O)(=O)NC(Cc3ccccc3)C(=O)NCCN3CCCCC3C)ccc21` (stereo not drawn), 5.72%.

With `CCNC(=O)CC1C(=O)N(c2ccc(F)cc2)C(=O)N1CCc1ccc(OC)cc1` (stereo not drawn), the “hERG current change (%, negative = inhibition) at 10uM” value was -23.5%.

Turning to `Cc1cc2ccccc2c(=O)n1CC(=O)NCc1ccco1`, the “hERG current change (%, negative = inhibition) at 10uM” value was 13.8%.

With `Cc1nc2n[nH]c(N)c2c2c1CCCC2`, the “hERG current change (%, negative = inhibition) at 10uM” value is given as -1.41%.

With `COc1ccc(SC[C@H](CC(C)C)N2CCN(C)CCC2=O)cc1`, the “hERG current change (%, negative = inhibition) at 10uM” value is on record as -36.3%. In the case of `CCC1=C(OC(=O)c2ccccc2)C(C)(C)C(c2ccccc2)OC1=O` (stereo not drawn) it was -5.55%. In the case of `O=[N+]([O-])c1cc2c(cc1Br)CCN2` it was 11.2%; in that of `CCOC(=O)CN1C(=O)N(CC(=O)OCC)C(c2ccccc2)(c2ccccc2)C1=O`, -11.1%; in that of `O=C1c2oc3ccccc3c(=O)c2C(c2cccnc2)N1CCCN1CCOCC1` (stereo not drawn), 10.8%.

For the compound `Brc1ccccc1-c1ccccc1`, the “hERG current change (%, negative = inhibition) at 10uM” value stood at 14.1%. For `Cc1c(N2C(=O)c3ccc(F)cc3C2=O)c(=O)n(-c2ccccc2)n1C` the value was 13.6%; for `Nc1c(S(=O)(=O)c2cccs2)c2nc3ccccc3nc2n1Cc1cccs1`, 7.16%.

For the compound `CC1CC(C)CN(CC(=O)N2CCCc3c2c(=O)oc2ccc(OCc4ccccc4)cc32)C1` (stereo not drawn), the “hERG current change (%, negative = inhibition) at 10uM” value was -4.71%. For `c1ccc(-n2nnnc2NCCc2c[nH]c3ccccc23)cc1` the value was 5.85%. For `COC(=O)c1nn(-c2ccc3c(c2)OCO3)cc1O` the value was 1.71%; for `Cc1ccc(NC(=O)C2CCCN(S(=O)(=O)c3cccnc3)C2)c(C)c1` (stereo not drawn), 9.18%. In the case of `CC(=O)Nc1ccc(S(=O)(=O)N2CCC(=O)Nc3ccccc32)cc1` it was 21.2%.

Consider `CN(C)CCSc1nc(-c2ccccc2)nc2c1CCC2`, for which the “hERG current change (%, negative = inhibition) at 10uM” value was -61.3%. Consider `Cc1ccc(-c2csc(N(CCCN3CCOCC3)C(=O)c3ccco3)n2)cc1.Cl`, for which the “hERG current change (%, negative = inhibition) at 10uM” value was -19.1%. Regarding `Cc1cc(C)c2c(=O)[nH]c(SCC(=O)N(C)C)nc2n1`, the “hERG current change (%, negative = inhibition) at 10uM” value was -0.697%.

Turning to `CCN1CCN(Cc2ccc(NC(=O)c3ccc(C)c(NC(=O)c4cccc5[nH]ccc45)c3)cc2C(F)(F)F)CC1`, the “hERG current change (%, negative = inhibition) at 10uM” value is reported as 1.17%. For `CC1(C)Cc2nc3sc4c(OCc5ccccc5)ncnc4c3cc2CO1` the value was 2.14%.

Take `Cc1c(C(=O)NC2CCCC2)oc2ccccc12`: the “hERG current change (%, negative = inhibition) at 10uM” value is listed as -21.5%. For `CCOC(=O)Cc1csc(SCC(=O)Nc2ccc3[nH]c(=O)[nH]c3c2)n1` the value was 20.4%; for `COc1cc(O)c(C(C)=O)cc1OC`, 19.1%; for `O=C(CCCOc1ccccc1)NCC1CCCO1` (stereo not drawn), 3.66%. For `CCn1c(SCC(=O)c2ccc(NS(=O)(=O)c3ccccc3)cc2)nnc1-c1cccs1` the value was 0.372%. For `CCOC(=O)C1CCN(C(=O)C2(NC(=O)Nc3cccc(F)c3)CCCCC2)CC1` the value was 12.4%. On to `CCCc1cc(NC(=O)CCl)n(-c2ccccc2)n1`, for which the “hERG current change (%, negative = inhibition) at 10uM” value is recorded as -3.54%. For `COc1c(N2CCNC(C)C2)c(F)cc2c(=O)c(C(=O)O)cn(C3CC3)c12` (stereo not drawn), the “hERG current change (%, negative = inhibition) at 10uM” value is 4.21%.

For the compound `COc1ccc(-c2nc(CS(=O)CC(=O)NC3CCC(C)CC3)c(C)o2)cc1OC` (stereo not drawn), the “hERG current change (%, negative = inhibition) at 10uM” value was -34.6%.

`COc1ccc(N(C)C(=O)c2ccc3snnc3c2)cc1`: the “hERG current change (%, negative = inhibition) at 10uM” value is -0.703%. `COc1cccc(C2=CC(=O)C[C@H](c3ccc(Cl)cc3)C2)c1`: the “hERG current change (%, negative = inhibition) at 10uM” value amounted to 15.4%. For `CC(NC(=O)CSc1ccccc1C(=O)O)C1CC2CCC1C2` (stereo not drawn) the value was 20.6%. For `O=C(CSc1nnc(Cc2ccccc2)o1)Nc1ccc2c(c1)OCO2` the value was 10.5%. Turning to `CN(C)CCNC(=O)c1cc2c(=O)n(C)c3ccccc3c2n1C`, the “hERG current change (%, negative = inhibition) at 10uM” value was found to be 2.09%. For `O=C1N(CN2C(=O)C3(OCCO3)c3ccccc32)c2ccccc2C12OCCO2` the value was 17.1%.

On to `C/C(=N\NC(=O)c1cc(C)nc2ccc(C)cc12)c1ccncc1`, for which the “hERG current change (%, negative = inhibition) at 10uM” value is given as 10.8%. For `COc1ccc(N=C2SC(C(=O)N3CCN(c4ccccc4)CC3)CC(=O)N2C)cc1` (stereo not drawn) the value was -13%. For `Cc1ccc2cc(C#N)c(N3CCCN(C(=S)NCCCN(C)C)CC3)nc2c1` the value was -11.4%; for `CN(C)CCCOc1cccc(Cl)c1.O=C(O)C(=O)O`, -19.5%; for `COc1cccc(CNC(=O)N2CCN(c3ccccc3)CC2)c1`, -6.56%.

On to `N#C/C(=C/c1ccc(CNS(=O)(=O)c2ccccc2)o1)C(N)=O`, for which the “hERG current change (%, negative = inhibition) at 10uM” value was determined as 11.2%.

For the compound `Cn1nnc(NC(=O)/C=C/c2ccco2)n1`, the “hERG current change (%, negative = inhibition) at 10uM” value is reported as 8.33%.

Consider `CCOC(=O)C1CSC(CC(=O)Nc2ccc(Cl)c(Cl)c2)C(=O)N1` (stereo not drawn), for which the “hERG current change (%, negative = inhibition) at 10uM” value was -24.2%. In the case of `Cl.N#CCCN(/N=C/c1cccnc1)C1=NS(=O)(=O)c2ccccc21` it was -22.3%; in that of `CCC(C)NC(=O)CSc1nc2scc(-c3ccccc3)c2c(=O)[nH]1` (stereo not drawn), -1.07%. With `COCCN(C(=O)C1CCCO1)c1c(N)n(CC(C)C)c(=O)[nH]c1=O` (stereo not drawn), the “hERG current change (%, negative = inhibition) at 10uM” value amounted to 5.16%. With `CC(C)c1ccc(NC(=O)N2C[C@H]3C[C@@H](C2)c2cccc(=O)n2C3)cc1`, the “hERG current change (%, negative = inhibition) at 10uM” value came to 7.01%.

For the compound `Cc1cccc(NC(=O)CCN2CCCCC2)c1.Cl`, the “hERG current change (%, negative = inhibition) at 10uM” value was -10.9%. `C1CCC(NC2CCCCC2)CC1`: the “hERG current change (%, negative = inhibition) at 10uM” value came to 17.1%. For `Cc1ccc(OCC(=O)Nc2ccc(S(=O)(=O)Nc3ccccn3)cc2)c(C)c1` the value was 12.8%; for `CCOC(=O)c1c(CSc2nc(C)cc(C)c2C#N)n(C)c2cc(Br)c(OC(C)=O)cc12`, 8.76%; for `C[C@H](NC(=O)OC(C)(C)C)c1nnc(SCC(N)=O)o1`, 3.45%. For `COC(=O)c1sccc1S(=O)(=O)NCc1ccc(S(N)(=O)=O)cc1`, the “hERG current change (%, negative = inhibition) at 10uM” value was 2.03%. Regarding `O=C(O)CS(=O)(=O)CC(=O)O`, the “hERG current change (%, negative = inhibition) at 10uM” value is reported as 14.2%. Consider `CCOC(=O)c1c(NC(C)=O)sc2c(O)c(Br)ccc12`, for which the “hERG current change (%, negative = inhibition) at 10uM” value amounted to 6.88%. For `O=C(N[C@@H](Cc1ccc(O)cc1)C(=O)O)c1ccc(C(F)(F)F)cc1`, the “hERG current change (%, negative = inhibition) at 10uM” value was found to be 13.5%. In the case of `Cc1ccc(C(=O)N/C(=C/c2ccco2)C(=O)Nc2cccc(C)c2)cc1` it was -16.7%.

For the compound `CCOC(=O)CSc1nnc(NC(=O)c2cc([N+](=O)[O-])cc([N+](=O)[O-])c2)s1`, the “hERG current change (%, negative = inhibition) at 10uM” value is -8.83%. For `O=C(CSc1nccc(=O)[nH]1)N1CCN(c2ccccc2)CC1` the value was 14.8%. For `COc1ccc(CCC(C)Nc2cccc(F)c2)cc1` (stereo not drawn) the value was -4.46%. For `COc1cccc(C(=O)NCCNC(=O)c2ccco2)c1.O=C(O)C(=O)O` the value was 12.3%.
